# Test results as given in the supplement of paper PMC4604168 (melanoma cell lines).
# Some of the results follow. Single values are uncertain, as repeats are few or missing.
# Columns and labels:
# Experiment in all cases: cell count relative to DMSO control; melanoma cells; higher = more viable cells
# Details in all cases: library dose: standard library concentration; 72 h
# SkMel28 = system: SkMel28
# SkMel2 = system: SkMel2
# SkMel30 = system: SkMel30
# SkMel5 = system: SkMel5
# UACC257 = system: UACC257
# UACC62 = system: UACC62
# WM115 = system: WM115
# WM1716 = system: WM1716
# WM3526 = system: WM3526
# WM1745 = system: WM1745
# 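Note: cells treated in 1,536-well plates, then fixed and DAPI-stained, with nuclei counted from automated high-throughput microscope images.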
Compound,cell count (SkMel28),cell count (SkMel2),cell count (SkMel30),cell count (SkMel5),cell count (UACC257),cell count (UACC62),cell count (WM115),cell count (WM1716),cell count (WM3526),cell count (WM1745)
"C[C@@H](Oc1cc(-c2cnn(C3CCNCC3)c2)cnc1N)c1c(Cl)ccc(F)c1Cl [Crizotinib] + O=C(O)C(=O)Nc1sc2c(c1C(=O)O)CCNC2 [TCS401] (first compound 1 µM, partner dose 8.33333 µM)",61.8%,92.8%,110%,62.8%,73.2%,65.1%,67%,75.9%,80.1%,–
"C[C@@H](Oc1cc(-c2cnn(C3CCNCC3)c2)cnc1N)c1c(Cl)ccc(F)c1Cl [Crizotinib] + COc1ccc(-c2ccc3c(N4CCOCC4)nc(N4C[C@@H](C)O[C@@H](C)C4)nc3n2)cc1CO [KU0063794] (first compound 1 µM, partner dose 0.1 µM)",70.3%,73%,69.8%,47.1%,76.4%,64.6%,68.6%,75.6%,81.8%,–
"C[C@@H](Oc1cc(-c2cnn(C3CCNCC3)c2)cnc1N)c1c(Cl)ccc(F)c1Cl [Crizotinib] + CCCCCCCCCCCC1=C(O)C(=O)C=C(O)C1=O [Embelin] (first compound 1 µM, partner dose 6 µM)",70.2%,77.1%,97.6%,70.4%,89.3%,90.5%,68.4%,76.2%,93.3%,–
"CS(=O)(=O)CCNCc1ccc(-c2ccc3ncnc(Nc4ccc(OCc5cccc(F)c5)c(Cl)c4)c3c2)o1 [lapatinib] + COc1cc(N2CCC(N3CCN(C)CC3)CC2)ccc1Nc1ncc(Cl)c(Nc2ccccc2S(=O)(=O)C(C)C)n1 [NVP-TAE684] (first compound 4 µM, partner dose 0.4 µM)",43.4%,71.5%,75.2%,31.6%,80.5%,42.1%,77.8%,65.7%,52.1%,–
"C[C@@H](Oc1cc(-c2cnn(C3CCNCC3)c2)cnc1N)c1c(Cl)ccc(F)c1Cl [Crizotinib] + O=c1cc(-c2cccc3c2Sc2ccccc2S3)oc(N2CCOCC2)c1 [KU55933] (first compound 1 µM, partner dose 5 µM)",64.4%,76.5%,129%,77.9%,95.6%,102%,69.2%,75.3%,90.7%,–
"CS(=O)(=O)CCNCc1ccc(-c2ccc3ncnc(Nc4ccc(OCc5cccc(F)c5)c(Cl)c4)c3c2)o1 [lapatinib] + c1cc(-c2cnn3cc(-c4ccc(OCCN5CCCCC5)cc4)cnc23)ccn1 [Dorsomorphin] (first compound 4 µM, partner dose 2 µM)",51.4%,70.7%,72.8%,46%,58.9%,47.2%,61.4%,73%,66%,–
"CNC(=O)c1cc(Oc2ccc(NC(=O)Nc3ccc(Cl)c(C(F)(F)F)c3)cc2)ccn1 [sorafenib] + COc1ccc(COc2ccc(Cc3cnc(N)nc3N)cc2OC)cc1 [GW2580] (first compound 2 µM, partner dose 5 µM)",76.5%,87%,110%,35.7%,74.4%,94.5%,79.6%,80.9%,76.8%,–
"CN1CCN(c2ccc3nc(-c4c(N)c5c(F)cccc5[nH]c4=O)[nH]c3c2)CC1 [Dovitinib] + CC(C)CCN1c2nc(Nc3cc(F)c(O)c(F)c3)ncc2N(C)C(=O)C1C [BID1870] (first compound 0.5 µM, partner dose 1 µM)",60.5%,49.8%,101%,67.1%,87.7%,71.4%,86.4%,98%,64.6%,–
"C[C@@H](Oc1cc(-c2cnn(C3CCNCC3)c2)cnc1N)c1c(Cl)ccc(F)c1Cl [Crizotinib] + COc1cc(N2CCC(N3CCN(C)CC3)CC2)ccc1Nc1ncc(Cl)c(Nc2ccccc2S(=O)(=O)C(C)C)n1 [NVP-TAE684] (first compound 1 µM, partner dose 0.4 µM)",41.5%,55.4%,129%,56.3%,75.8%,54.1%,36.5%,93.3%,73.9%,–
"CNC(=O)c1cc(Oc2ccc(NC(=O)Nc3ccc(Cl)c(C(F)(F)F)c3)cc2)ccn1 [sorafenib] + COc1cc(N2CCC(N3CCN(C)CC3)CC2)ccc1Nc1ncc(Cl)c(Nc2ccccc2S(=O)(=O)C(C)C)n1 [NVP-TAE684] (first compound 2 µM, partner dose 0.4 µM)",84.5%,43.7%,128%,63.5%,81%,71.4%,71.6%,92.8%,72.6%,–
"CS(=O)(=O)CCNCc1ccc(-c2ccc3ncnc(Nc4ccc(OCc5cccc(F)c5)c(Cl)c4)c3c2)o1 [lapatinib] + Oc1cc(-c2nc(-c3ccccc3)[nH]c2-c2ccncc2)ccc1Cl [L779450] (first compound 4 µM, partner dose 1 µM)",28.7%,34.1%,80.2%,57.3%,94.4%,31.5%,55.3%,74.8%,61.3%,–
"C=CCNC1=C2C[C@@H](C)C[C@H](OC)[C@H](O)[C@@H](C)/C=C(\C)[C@H](OC(N)=O)[C@@H](OC)/C=C\C=C(/C)C(=O)NC(=CC1=O)C2=O [Tanespimycin] + COc1cc(N2CCC(N3CCN(C)CC3)CC2)ccc1Nc1ncc(Cl)c(Nc2ccccc2S(=O)(=O)C(C)C)n1 [NVP-TAE684] (first compound 0.01 µM, partner dose 0.4 µM)",60%,68.8%,108%,58.1%,87.8%,55.9%,16.9%,68.3%,60%,–
"C=CCNC1=C2C[C@@H](C)C[C@H](OC)[C@H](O)[C@@H](C)/C=C(\C)[C@H](OC(N)=O)[C@@H](OC)/C=C\C=C(/C)C(=O)NC(=CC1=O)C2=O [Tanespimycin] + c1cc(-c2cnn3cc(-c4ccc(OCCN5CCCCC5)cc4)cnc23)ccn1 [Dorsomorphin] (first compound 0.01 µM, partner dose 2 µM)",29.9%,86%,111%,61.1%,74.7%,46.6%,29.2%,65%,76%,–
"C=CCNC1=C2C[C@@H](C)C[C@H](OC)[C@H](O)[C@@H](C)/C=C(\C)[C@H](OC(N)=O)[C@@H](OC)/C=C\C=C(/C)C(=O)NC(=CC1=O)C2=O [Tanespimycin] + O=C(Nc1ccccc1)c1cc([N+](=O)[O-])ccc1Cl [GW9662] (first compound 0.01 µM, partner dose 10 µM)",35.7%,98.3%,89.4%,61.6%,82.8%,64.7%,26.8%,73.8%,90.4%,–
"C=CCNC1=C2C[C@@H](C)C[C@H](OC)[C@H](O)[C@@H](C)/C=C(\C)[C@H](OC(N)=O)[C@@H](OC)/C=C\C=C(/C)C(=O)NC(=CC1=O)C2=O [Tanespimycin] + CCc1ccc(CCOc2ccc(CC3SC(=O)NC3=O)cc2)nc1 [pioglitazone] (first compound 0.01 µM, partner dose 10 µM)",51%,87.1%,138%,90.2%,103%,79.2%,28.1%,73.2%,95.6%,–
"CNC(=O)c1cc(Oc2ccc(NC(=O)Nc3ccc(Cl)c(C(F)(F)F)c3)cc2)ccn1 [sorafenib] + CCCCCCCCCCCC1=C(O)C(=O)C=C(O)C1=O [Embelin] (first compound 2 µM, partner dose 6 µM)",114%,96.2%,107%,72.1%,83%,114%,103%,45.3%,89.2%,–
"CS(=O)(=O)CCNCc1ccc(-c2ccc3ncnc(Nc4ccc(OCc5cccc(F)c5)c(Cl)c4)c3c2)o1 [lapatinib] + O=C1NC(=O)/C(=C/c2ccc(-c3ccc(F)cc3O)o2)S1 [AS252424] (first compound 4 µM, partner dose 5 µM)",108%,89.5%,86%,58.4%,93.7%,56.3%,94.4%,76.7%,72.6%,–
"CNC(=O)c1cc(Oc2ccc(NC(=O)Nc3ccc(Cl)c(C(F)(F)F)c3)cc2)ccn1 [sorafenib] + Cc1cc(N2CCOCC2)cc2[nH]c(-c3c(NC[C@@H](O)c4cccc(Cl)c4)cc[nH]c3=O)nc12 [BMS536924] (first compound 2 µM, partner dose 1 µM)",76.6%,38.8%,93.2%,66.9%,80%,72.1%,84.8%,106%,63.1%,51.9%
"CN1CCN(c2ccc3nc(-c4c(N)c5c(F)cccc5[nH]c4=O)[nH]c3c2)CC1 [Dovitinib] + O=c1cc(-c2cccc3c2Sc2ccccc2S3)oc(N2CCOCC2)c1 [KU55933] (first compound 0.5 µM, partner dose 5 µM)",35.2%,73.4%,96.5%,53.2%,90.8%,65.5%,89.2%,80.9%,80.4%,–
"C=CCNC1=C2C[C@@H](C)C[C@H](OC)[C@H](O)[C@@H](C)/C=C(\C)[C@H](OC(N)=O)[C@@H](OC)/C=C\C=C(/C)C(=O)NC(=CC1=O)C2=O [Tanespimycin] + Cn1cc(/C=C2\C(=O)Nc3cccnc32)c2ccccc21 [GW441756] (first compound 0.01 µM, partner dose 2 µM)",49.4%,99.9%,95.7%,63.2%,88.3%,54.4%,24%,90.3%,87.2%,–
"CN1CCN(c2ccc3nc(-c4c(N)c5c(F)cccc5[nH]c4=O)[nH]c3c2)CC1 [Dovitinib] + Cc1cc([N+](=O)[O-])ccc1NS(=O)(=O)c1cc(Cl)ccc1Cl [FH535] (first compound 0.5 µM, partner dose 5 µM)",38.4%,50.2%,95.2%,53.6%,53.1%,78.9%,68.7%,73.7%,61%,–
"CN1CCN(c2ccc3nc(-c4c(N)c5c(F)cccc5[nH]c4=O)[nH]c3c2)CC1 [Dovitinib] + O=S(=O)(c1ccccc1)N(CC(F)(F)F)c1ccc(C(O)(C(F)(F)F)C(F)(F)F)cc1 [T0901317] (first compound 0.5 µM, partner dose 7 µM)",51.2%,70.7%,76%,57%,73.6%,55.7%,63.6%,73%,75.6%,–
